According to the supplement of paper PMC3334620:
In all, about 33,000 sequences were measured (“E-score (-0.5 to 0.5)”: median about -0.012, highest 2% from about 0.27 on). The list shows a part of the results.

Each sequence was assayed against T1, Vhr1 (UniProt P40522) (assay: PBM E-score (8-mer binding enrichment) (E-score (-0.5 to 0.5)); higher = stronger / more preferred TF binding; most listed sequences are background and not binding sites). Conditions: protein concentration: 200 nM; construct: GST-full length.
T1 sequence: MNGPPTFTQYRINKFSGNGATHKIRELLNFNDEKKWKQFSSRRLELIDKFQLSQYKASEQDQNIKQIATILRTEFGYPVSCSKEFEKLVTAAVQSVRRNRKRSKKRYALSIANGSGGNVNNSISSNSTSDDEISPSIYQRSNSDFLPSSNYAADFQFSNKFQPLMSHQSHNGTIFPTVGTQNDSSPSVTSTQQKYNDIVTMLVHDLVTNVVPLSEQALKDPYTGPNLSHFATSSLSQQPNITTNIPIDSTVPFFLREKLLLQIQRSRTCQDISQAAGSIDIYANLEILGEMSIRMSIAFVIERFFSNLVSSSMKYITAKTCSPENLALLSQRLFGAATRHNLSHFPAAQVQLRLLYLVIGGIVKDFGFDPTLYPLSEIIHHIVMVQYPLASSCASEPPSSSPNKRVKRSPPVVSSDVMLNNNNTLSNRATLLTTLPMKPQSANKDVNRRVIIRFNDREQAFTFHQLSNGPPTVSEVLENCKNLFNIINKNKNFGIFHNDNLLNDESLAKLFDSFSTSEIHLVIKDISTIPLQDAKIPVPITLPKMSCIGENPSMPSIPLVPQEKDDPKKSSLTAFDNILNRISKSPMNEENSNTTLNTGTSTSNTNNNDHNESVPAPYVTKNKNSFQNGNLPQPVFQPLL
Outline: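 Universal all-10-mer Agilent arrays, double-stranded by primer extension on fresh or once-stripped slides, were probed with about 100-200 nM GST-tagged yeast transcription factors made by PURExpress. Fluorescent anti-GST detected bound protein, and masliner normalised the scans. E-scores from the Universal PBM Analysis Suite were given to each ungapped eight-base word pooled with its reverse complement.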

Sequence	PBM E-score
CTAAGAGC	-0.169
AACCTCGA	-0.0999
GTGTTCTA	0.013
ACGGCGTA	-0.00472
ATTTGAGA	-0.0877
AAGGAACC	-0.128
AAAAGTAT	-0.0337
AATCAACC	0.166
AGAAGTGC	-0.189
AGCAAGCT	-0.105
GACTAAGA	0.0912
AAGACGTA	-0.15
AAGCGGAT	0.0469
ATGAGGTA	0.00309
TCCGCACA	0.21
CGTGGCGA	-0.0547
ATAAAAAA	-0.139
GGGTACTA	0.214
AACGTTAG	-0.137
CACTCCTA	-0.262
CTAAATTC	-0.0442
CGGTTCAC	-0.0323
CTTCTAAA	-0.306
TAGACTGA	-0.0371
CGATCCAG	0.132

Sequence	PBM E-score
GTTCGGCA	-0.0789
ATCAGTTA	0.124
CTTTTCTA	-0.292
AGGTGGAT	0.087
ACGATGAT	0.105
TATTCGGA	0.0415
GAACCGGA	0.0763
CGACCGAC	0.0852
TGGGCGAA	0.104
AGGATGCA	-0.0788
ATCCGTTA	0.0444
AGTAATCA	0.303
CAAAGACA	-0.0396
ACGTCCTA	-0.0914
GAACGCAC	0.0695
GCTATCAC	-0.09
GTACGCGA	0.0404
TGGCCACA	0.179
ACAAATTG	0.00167
ATATCCGG	0.173
CCTGGTTA	-0.005
TCTCAGCA	0.0768
CGATCGCA	0.178
AGGTCCGC	-0.156
AAAGCTAA	-0.232

Sequence	PBM E-score
GGACCTGA	-0.0228
ATGCAGGG	0.0235
CCACTCGC	0.0654
CAGTCGGG	0.133
TACGCACA	0.0148
CGCTGGGC	0.0647
ACAAATAA	0.0817
CAAACATA	0.101
ATGTTCGG	0.144
ACGTGATC	0.0326
CTATACTA	0.14
AGACCAAA	-0.012
GCAATTAA	-0.0295
AAGGAGAG	-0.332
AATCTCGC	0.0379
AAGCACAA	-0.0279
CAGCATTA	-0.0718
CTAGCCAG	-0.0891
GGCTATAC	-0.0266
AACTTTTG	-0.205
ACCTAACT	0.029
GAATCCGA	0.135
GATGTGGA	0.107
AGGTGAAC	0.00026
CTTCGTAC	-0.0414

Sequence	PBM E-score
CCTCAACG	-0.37
GACCCCCA	-0.215
ATCATTCC	0.105
CTACAAAC	0.00725
ATCCACTC	0.226
TCGAGCCA	-0.0584
ACCTTTTG	-0.322
CTCCAGTC	0.126
AGTGAGGG	-0.0525
CGGAAACG	-0.113
ACGGCATA	0.0852
AAGGACTC	0.137
AAACGTAG	-0.0369
AACAGTTG	0.0433
ATTAGCGC	0.0558
ACCCGCCT	0.0943
TAGGGCCA	-0.246
AAAAGTTG	-0.228
TAGGCTGA	0.0199
CGCCAATC	0.139
ACCGTCAG	-0.0753
CAAACTCA	0.0842
CGCAGGAC	0.113
CATATATG	0.00539
CGAGGGGC	0.00685

Sequence	PBM E-score
CCCACTCG	0.0331
ATTAGTTC	-0.0612
ACCTTTCC	-0.242
TAGAGTCA	0.355
ATGCTCCC	-0.097
GTTTTCCA	-0.0683
ATCGGACG	-0.114
GGTGAAGA	-0.0479
ACTAGCGG	-0.0437
CAAGGAAA	-0.118
ATACAGCA	0.0905
TACTTGGA	-0.0572
GTGACGGA	0.0152
CAGCCGGG	0.185
TATGTTAA	-0.188
GGCCCTGA	-0.0309
CGCGACTA	0.391
AAAAGACT	-0.102
AATGTCAT	-0.0728
GACGAGAC	-0.0155
CGCTCTAA	-0.0477
CGCTTGAC	0.00631
CGTATTAC	0.186
GACCCTAA	-0.109
GAGTTTAA	0.0259

Sequence	PBM E-score
ATTCAGGG	0.108
CGCATTGA	0.0883
CGGATGAC	0.175
CTCTGAAC	-0.204
CCGAACAA	-0.138
AAGGTTGA	-0.0768
CTCAGCAG	0.168
CGTTCACA	-0.0335
CACCAGGA	0.157
TACGGTGA	0.179
GCCAGGGC	-0.0494
CTCTGCCC	-0.013
AAGGACTA	-0.0314
AGCGGGCC	-0.125
CGCCCTCC	-0.137
ACTTCTTC	-0.00857
TCAGAAAA	-0.284
CCCCTCTA	-0.106
CCTGCTGA	0.268
AAGGTCAC	-0.0131
AACTACAG	-0.041
GAGCAAGC	-0.0213
AGGGGGAA	-0.143
AATCTAGT	-0.021
CGCCTCTC	-0.251

Sequence	PBM E-score
GAATGCTC	-0.037
CAGGCTGA	0.192
CCACCAAC	0.18
TAAAGACA	-0.192
ACCGGCGT	0.046
TCGCTACA	-0.0943
ATGAATGC	0.0712
CTCATAAC	0.00985
ATGACAAT	-0.0432
AATTTCTG	-0.194
GAGCATAA	-0.00172
AAATTTAA	-0.0182
ATACGTAG	0.021
GTTCTGCA	-0.0901
CCGTGCTA	-0.0852
ACTCAGCC	0.151
TCTCGTAA	-0.0557
GTATTCAC	-0.0445
CCCAGTCG	-0.0314
ATGCTACG	0.116
AAACGTAC	-0.109
ACATGAAC	0.101
